Reference: PubChem BioAssay AID485344 (National Center for Advancing Translational Sciences (NCATS), 2010)
Out of some 340,000 compounds screened, about 6,900 (2%) were called active. Rule as the data show it: active = inhibition above about 30%; inactive = below that, where a call was filed. This is a selection; strong and weak results do not stand in their true shares. Entries without a call were filed so in the source.

Target: D(2) dopamine receptor (Homo sapiens) (UniProt P14416)
Test: HTS Assay for Allosteric Antagonists of the Human D2 Dopamine Receptor: Primary Screen for Antagonists; also: 0% is about no effect
Conditions: HEK293 TREx D2 cells, calcium flux, dopamine EC80; at 10 µM; stronger effect = higher value
In short: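 Tetracycline-induced HEK293 TREx cells expressing D2 receptor forced-coupled to calcium signalling, loaded with no-wash calcium dye. Compounds added and calcium flux read 180 s, then dopamine added at EC80 and read a further 180 s.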

UniProt P14416, sequence (P14416 whole entry, looked up): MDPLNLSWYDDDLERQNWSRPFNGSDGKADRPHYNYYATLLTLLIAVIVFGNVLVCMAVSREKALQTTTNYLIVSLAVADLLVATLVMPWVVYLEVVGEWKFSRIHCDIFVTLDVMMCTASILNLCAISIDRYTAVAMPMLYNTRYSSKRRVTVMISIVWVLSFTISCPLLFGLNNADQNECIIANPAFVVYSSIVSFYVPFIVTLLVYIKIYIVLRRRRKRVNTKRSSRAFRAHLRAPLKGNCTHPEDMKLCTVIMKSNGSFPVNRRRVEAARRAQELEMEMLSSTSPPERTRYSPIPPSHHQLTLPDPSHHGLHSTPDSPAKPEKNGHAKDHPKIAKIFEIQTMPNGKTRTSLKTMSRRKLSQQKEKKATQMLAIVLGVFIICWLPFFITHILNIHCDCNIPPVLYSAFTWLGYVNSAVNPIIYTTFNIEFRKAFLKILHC

| SMILES | inhibition |
| --- | --- |
| CCCCn1cnc2cc(NCc3ccc(OCC)cc3)ccc21 | -7.35% |
| O=C(N/N=C/C=C/c1ccccc1[N+](=O)[O-])c1cccs1 | active: 39.2% |
| CCOc1ccc(NC(=O)c2cc(S(=O)(=O)N3CCc4ccccc43)ccc2F)cc1 | -7.59% |
| CCN(C(=O)Cn1c(=O)n(-c2ccccc2)c(=O)c2ccc(C(=O)NCc3ccc4c(c3)OCO4)cc21)c1cccc(C)c1 | 13% |
| Cc1c(Cl)cccc1NS(=O)(=O)c1ccc(-c2cnc(C3CC3)o2)cc1 | -5.12% |
| Cc1cc(C)cc(OCC(=O)Nc2c(C(=O)c3ccccc3)oc3ccccc23)c1 | 4.86% |
| CCC(=O)N1c2ccccc2CC1C(=O)NCc1cc(OC)ccc1OC (stereo not given) | 2.9% |
| O=C(CCn1c(=O)c2cccn2c2cccnc21)Nc1ccccc1C(F)(F)F | 2.93% |
| CCOc1ccc(NC(=O)CCN2CCN(c3ccccc3OC)CC2)cc1 | active: 61.5% |
| Cc1cc(C)nc(-n2nc(C)c3c2N(Cc2ccccc2)C(=O)CC3c2ccc(Cl)cc2)n1 (stereo not given) | -15.2% |
| Cc1ccc2c(=O)cc(C(=O)Nc3ccc(S(=O)(=O)Nc4onc(C)c4C)cc3)oc2c1C | -4.27% |
| O=C(CSc1oc(-c2ccccc2)nc1S(=O)(=O)c1ccc(Cl)cc1)c1ccccc1 | -4.78% |
| O=C(CC1C(=O)N(c2ccc(F)cc2)C(=O)N1Cc1ccc2c(c1)OCO2)Nc1ccc(Cl)cc1 (stereo not given) | -17.5% |
| Cc1ccc(-n2cc(C(=O)Oc3ccc(F)cc3)c3ccccc3c2=O)cc1 | 16.5% |
| Cc1ccc(NC(=O)CN(C)S(=O)(=O)c2cnc[nH]2)cc1 | 5.59% |
| Cc1ccc(NC(=O)Cn2c(=O)n(CCCCC(=O)NCc3ccccc3Cl)c(=O)c3ccccc32)cc1 | 1.1% |
| O=C(CCCN1CCC(C(=O)c2ccc(F)cc2)CC1)c1ccc(F)cc1 | active: 71.5% |
| Cc1ccc(C)c(CN2C(=O)c3ccccc3S(=O)c3ccc(C(=O)N4CCN(c5cccc(Cl)c5)CC4)cc32)c1 (stereo not given) | 9.42% |
| COc1ccccc1OCC(=O)NCC(c1ccc(Cl)cc1)N1CCOCC1 (stereo not given) | 11% |
| CCCc1nn2c(=O)cc(COc3ccc(/C=C(\C#N)C(=O)Nc4ccccc4)cc3)nc2s1 | -11.9% |
| COc1ccc(C(CC(=O)NCc2ccccc2Cl)N2Cc3ccccc3C2=O)cc1OC (stereo not given) | -18.5% |
| CC(C)CC(=O)NC1(C(F)(F)F)C(=O)Nc2c1c(=O)[nH]c(=O)n2-c1ccccc1 (stereo not given) | 4.18% |
| O=C(COC(=O)c1cccnc1)Nc1cccc2ccccc12 | active: 32.2% |
| CCS(=O)(=O)N1CCC(N2CCN(c3ccccc3)CC2)CC1 | active: 73.1% |

| SMILES | inhibition |
| --- | --- |
| Cc1ccc(-n2c(=O)c3cccnc3n2CC(=O)Nc2cc(Cl)ccc2C)cc1 | 17.5% |
| O=c1cc(-c2ccccc2)n2c(SCc3c(F)cccc3Cl)nnc2[nH]1 | -4.28% |
| COc1ccc(Nc2oc(/C=C/c3cccc(OC)c3)nc2C#N)cc1 | 18.8% |
| CCCn1c(=NC(=O)c2cc3ccccc3o2)c(C(=O)OCC)cc2c(=O)n3ccccc3nc21 | 0.37% |
| COc1ccc(N(C(=O)/C=C\C(=O)Nc2ccc(C)cc2)C(C(=O)NCc2ccco2)c2ccc(C)cc2)cc1 (stereo not given) | 19.1% |
| CCCCN(CC)CCNC(=O)C1CCCN(S(=O)(=O)c2cccc3nsnc23)C1 (stereo not given) | 19.3% |
| CN1Cc2cccc3c2C(Cc2ccccc2S3)C1 (stereo not given) | active: 47.6% |
| O=C(Cn1ncc2ccsc2c1=O)N1CCN(c2ccccc2F)CC1 | 10.5% |
| O=S(=O)(c1ccc(-n2cnnn2)cc1)N1CCN(c2cccc(Cl)c2)CC1 | -10.7% |
| Cc1c(C(=O)N2CCCCCC2)c(S(=O)(=O)N(Cc2ccccc2)C(C)(C)C)c(C)n1C | 10% |
| CCc1cccc(C)c1NC(=O)CN1CCCN(Cc2ccccc2Cl)S1(=O)=O | 3.21% |
| COc1cc(C(=O)NC(c2ccc(Cl)cc2)c2cc(Cl)c3cccnc3c2O)cc(OC)c1OC (stereo not given) | 0.898% |
| CN(CCCNC(=O)c1cccn2c(=O)c3ccccc3nc12)Cc1ccccc1 | active: 31% |
| CCOc1ccccc1NC(=O)C(CC)n1c(C(=O)OC)cc2occc21 (stereo not given) | 1.47% |
| COc1cc(C2c3c(-c4ccccc4O)n[nH]c3C(=O)N2Cc2ccco2)ccc1OCC(C)C (stereo not given) | -3.83% |
| Cc1ccc(-n2nc3c(N4CCC(C(=O)NCc5ccccc5Cl)CC4)nnc(C)c3c2C)cc1 | -5.14% |
| COc1ccc2ccccc2c1/C=N\NC(=O)c1ccc(C)s1 | active: 40.2% |
| CC(=O)c1ccc(NC(=O)CCOc2ccccc2)cc1 | -8.88% |
| CCOC(=O)c1c(C)[nH]c(C)c1S(=O)(=O)NCC(=O)N1CCN(c2ccccc2OC)CC1 | 4.78% |
| COc1ccc(OC)c(S(=O)(=O)NCCc2csc(-c3cccc(F)c3)n2)c1 | -0.264% |
| CCN(CC)C(=O)Nc1ccc2c(c1)N(Cc1ccccc1)C(=O)c1ccccc1S2 | 8.67% |
| O=C(CN1CCSc2ccccc21)N1CCN(c2ccc(F)cc2)CC1 | 5.99% |
| Cc1ccc(N(C)C(=O)c2cc(S(=O)(=O)N3CCOCC3)cn2C)cc1 | 7.6% |
| CCN(CCNc1ccc(Cl)cc1[N+](=O)[O-])C(=O)c1cc([N+](=O)[O-])c(N(C)C)cc1OC | active: 34.4% |

| SMILES | inhibition |
| --- | --- |
| COc1ccc(CCNC(=O)CCCCn2c(=O)c3ccccc3n(Cc3ccccc3Cl)c2=O)cc1OC | -14.5% |
| COc1ccccc1-c1noc(CCCC(=O)Nc2cc(C)ccc2C)n1 | 26% |
| COc1ccc(C(=O)Nc2ccc(C(=O)OCc3cc(=O)n4nc(C5CC5)sc4n3)cc2)cc1 | -6.65% |
| CCCOc1ccc(OCCOCCN2CCc3ccccc3C2)cc1 | active: 31.4% |
| COc1cc(F)c(S(=O)(=O)Nc2c(C)n(C)n(-c3ccccc3)c2=O)cc1OC | 15.4% |
| COC(=O)c1ccc(CSc2nnc3ccc4ccccc4n23)cc1 | -14.2% |
| COCCCN(C(=S)Nc1cccc(Cl)c1)C(C)c1ccncc1 (stereo not given) | active: 30.3% |
| COc1ccccc1Cn1cc(C(=O)c2ccc(C)cc2)c(=O)c2cc3c(cc21)OCCO3 | 9.8% |
| CCn1cc2c(n1)-c1c(oc(C(=O)Nc3cccc(C(F)(F)F)c3)c1C)CC2 | -2.36% |
| Cc1cc(=O)c2cc(C(=O)Nc3ccccc3C)ccc2[nH]1 | 16.5% |
| CCOc1cc2sc(N3CCC(C(=O)Nc4cc(C)cc(C)c4)CC3)nc2cc1Br | 9.11% |
| CCOc1ccc(CNC(=O)CCCc2cn(C)c3ccccc23)cc1OC | 7.28% |
| COC(=O)c1cc2sc(Cl)cc2n1Cc1cc(C)ccc1C | -10.7% |
| Cc1ccc(-n2nc3c(=O)n(CC(=O)NCC(C)c4ccccc4)nc(C)c3c2C)cc1 (stereo not given) | -10.9% |
| COc1ccc(Cn2ccc3nc(C)c(C(=O)NCc4cccc(OC)c4)cc3c2=O)cc1 | -5.11% |
| CCc1ccccc1NC(=O)Cn1c2ncccc2c(=O)n1-c1ccccc1 | 2.54% |
| Nc1ccc(N2CCN(CCCCN3C(=O)C4CCCN4C3=O)CC2)cc1 (stereo not given) | active: 42.4% |
| COc1ccc(OC)c(NC(=O)NCc2ccc(F)cc2)c1 | active: 38.9% |
| Cc1c(C)n(C)c2ccc(C(=O)NCc3cccc(F)c3)cc12 | 19% |
| CCOC(=O)CSc1nnc2n(-c3ccccc3)c(=O)c3c4c(sc3n12)CC(C(C)(C)C)CC4 (stereo not given) | -6.91% |
| COc1cc2c(cc1NC(=O)COc1ccc(Cl)cc1Br)oc1ccccc12 | 9.01% |
| Cc1ccc(Nc2c(-c3ccsc3)nc3c(C)cccn23)cc1 | 16.6% |
| COc1ccccc1CNC(=O)Cn1ncn2c(cc3sccc32)c1=O | -18.6% |
| COc1ccc(S(=O)(=O)NCc2cccn2Cc2cccc(C)c2)cc1 | -1.23% |

| SMILES | inhibition |
| --- | --- |
| COc1ccccc1NC(=O)CC(c1cc(OC)c(OC)c(OC)c1)N1Cc2ccccc2C1=O (stereo not given) | 9.41% |
| CCCCCSc1nc2sc3c(c2c(=O)n1-c1ccc(OC)cc1)CCN(C(C)=O)C3 | 9.49% |
| COc1ccc(S(=O)(=O)c2c(C(=O)c3ccc(C)c(C)c3)cnc3ccc(F)cc23)cc1 | 0.488% |
| COc1ccccc1C(=O)Nc1ccnn1C1CCN(Cc2cn(C)c3ccccc23)CC1 | active: 61.6% |
| CC(C)c1ccc(OCC(=O)Nc2c(C(=O)c3ccc(F)cc3)oc3ccccc23)cc1 | -3.94% |
| O=S(=O)(Nc1cccc(C(F)(F)F)c1)c1ccc(-c2cnc(C3CC3)o2)cc1 | -7.65% |
| CC(=O)N1CCc2cc(S(=O)(=O)NCCCN3CCN(Cc4ccccc4)CC3)ccc21 | active: 43.8% |
| Cc1ccc(-n2nnc(-c3nc(-c4cccs4)no3)c2N)c(C)c1 | -0.0295% |
| COC(=O)CSc1nc2sc3c(c2c(=O)n1-c1ccccc1C)CC(C)(C)OC3 | -14.4% |
| Clc1ccc(-c2nc3c4cnn(-c5ccccc5Br)c4ncn3n2)c(Cl)c1 | 12% |
| Cc1ccc(OCC(=O)OC2=C(C(=O)c3ccccc3)N(C)S(=O)(=O)c3ccccc32)cc1 | 0.36% |
| CCc1ccc(NS(=O)(=O)c2cc(-c3cnc(C4CC4)o3)ccc2C)cc1 | 11% |
| Cc1ccccc1NC(=O)c1sc2nc3n(c(=O)c2c1C)CCC3 | 16.6% |
| Cc1oc(-c2ccc(C(=O)NCCC(C)C)cc2)nc1CN1CCc2ccccc21 | -7.95% |
| COc1ccccc1CNC(=O)CC(c1ccc(C)cc1)N1Cc2ccccc2C1=O (stereo not given) | 0.422% |
| Cc1cc(C)cc(NC(=O)C2CCCN2S(=O)(=O)c2ccc3c(c2)CCCC(=O)N3)c1 (stereo not given) | 5.03% |
| COc1ccc(CCNC(=O)CCS(=O)(=O)c2cc(Br)cc3c2N(C(C)=O)CC3)cc1OC | -20.8% |
| Cc1cc(C)cc(-n2ccn(Cc3ccccc3C)c(=O)c2=O)c1 | 18.1% |
| Cc1ccc(CNC(=O)C2COc3ccccc3C2)cc1 (stereo not given) | 1.17% |
| COc1ccc2c(c1)Cc1sc(NC(=O)c3cccc(C)c3)nc1-2 | 1.03% |
| CCc1ccccc1NC(=O)Cn1c(=O)n(-c2ccc(CC(=O)NCC3CCCO3)cc2)c(=O)c2ccccc21 (stereo not given) | -2.39% |
| COc1ccc(CNC(=O)c2ccc3c(c2)N(Cc2ccc(C)cc2)CCS3)cc1 | 7.45% |
| Cc1ccccc1C(=O)Nc1ccc2nc(SCC(=O)N3CCc4ccccc43)sc2c1 | -14.8% |
